The labels stand for the following.
B1: tRNA (parent)
chain: CUCUCGGUAGCCAAGUUGGUUUAAGGCGCAAGACUUUAAUUUAUCACUACGAAAUCUUGAGAUCGGGCGUUCGACUCGCCCCCGGGAGAUUUUUUCCUCGAGCAA

Variants at the background level are over-represented here.

In the data set the parent is B1. Nature of the data set: nonsense suppression (GFP-seq) (ratio to wild type); higher = more function; SUP4oc tRNA, yeast GFP reporter sort-seq. The gist of the method:
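Each variant's nonsense suppression (GFPSEQ) is a cell-share-weighted bin median GFP/RFP relative to the unmutated parent tRNA. Yeast with genome-integrated tRNA variants from a ~3% random-mutation library, a galactose-driven GFP ochre reporter and RFP were grown in raffinose/galactose medium with 80 mg/L adenine, then sorted into GFP/RFP bins for Illumina sequencing. Variants needed ≥100 reads and ≥30 cells.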
CCCUCGGUAGCCAAGUUGGUUUAAGGCGCGAGACUUUAAUUUAUCACUACGAAAUCUUGAGAUCGGGCGUUCGACUCGCCCCCGGGAGAUUUUUUCCUCGAGCAA [U2C A30G]: the nonsense suppression was at most 0.026.
Under CUUUCGGUAGCCAAGUUGGUUUAAGGCGCAAGACUUUAAUUUAUCACUACGAAAUCUUGAGAUCGGGCGUUCGACUCGCUCCCGGGAGAUUUUUUCCUCGAGCAA [C3U C80U] stands 0.0737; under CACUCGGUAGCCAAGUUGGUUGAAGGCGCAAGACUUUAAUUUAUCACUACGAAAUCUUGAGAUCGGGCGUUCGACUCGCCCCCGGGAGAUUUUUUCCUCGAGCAA [U2A U22G], at most 0.026.
In the case of CUCUCGGUAGCCAUGUUGGUUUAAGGCGCAAGACUUUAAUUUAUCACUACGAAAUUUUGAGAUCGGGCGUUCGACUCGCUCCCGGGACAUUUUUUCCUCGAGCAA [A14U C56U C80U G88C], the nonsense suppression is at most 0.026.
As for CCCUCGGUAGCCAAAUUGGUUUAAGGCGUAAGACUUUAAUUUAUCACUACGAAAUCUUGAGAUCGGGCGUUCGACUCGCCCCCGGGAGAUUUUUUCCUCGAGCAA [U2C G15A C29U], the nonsense suppression is at most 0.026.
For the variant CUCUCGGUAGCCACGUUGGUUUAAGGCGCAAGACUUUAAUUUAUCACUACGAAGUCUUGAGAUCCGGCGUUCGACUCGUCCCCGGGAGAUUUUUUCCUCGAGCAA [A14C A54G G65C C79U], the nonsense suppression is at most 0.026.
With CUCUCGGUAGCCAAGUUGGUUUAAGGGGCAAGACUUUAAUUUAUCACUACGAAAUCUUGAGAUCGGGCGUUCGACUUGCCCCCGGGAGAUUUUUUCCUCGAGCAA [C27G C77U] the figure was at most 0.026; with AUCUCGGUAGACAAGUUGGUUUAAGGCGCAAGACUUUAAUUUAUCACUACGAAAUCUUGAGAUCGGGCGUUCGACUCCCCCCCGGGACAUUUUUUCCUCGAGCAA [C1A C11A G78C G88C], at most 0.026; with CUCUCGGUAGCCAAGUUGGUUUAAGGCGCUAGACUUUAAUUUAUCACUACGAAAUCUUGAGAUCGGGCGUUCGACUGGCCCCCGGGAGAUUUUUUCCUCGAGCAA [A30U C77G], 0.0332.
As for GUCUCGGUAGCCAAGUUGGUUUACGGCGCAAGACUUUAAUUUAUCACUACGAAAUCUUGACAUCGGGCGUUCGACUCGCCCCCGGUAGAUUUUUUCCUCGAGCAA [C1G A24C G61C G86U], the nonsense suppression was at most 0.026.
With CUCUCGAUAGCCAAGUUGGUUUAAGGCGCGAGACUUUAAUUUAUCACUACGAAAUCUUGAGAUCGGGCGUUCGACUCGCCCCCGGGAGAUUUUUUCCUCGAGCAA [G7A A30G] the figure was at most 0.026; with CUCUCGGUAGCCCAGCUGGUUUAAGGCGCAAGACUUUAAUUUAUCACUACGAAAUCUUGAGAUCGGGCGUUCGACUCGCCCCCGGGAGAUUUUUUCCUCGAGCAA [A13C U16C], 1.12; with CUCUCGGUAGCCUAGUUGGUUUAAGGCGCAAGACUUUAAUUUAUCACUACGAAAUCGUGAGAUCGGGCGUUCGACUCGCCCCCGGGGGAUUUUUUCCUCGAGCAA [A13U U57G A87G], at most 0.026.
Under CUCUCGGUAGCCAAGUUGGUUUAAGGCGCAAGACUUUAAUUUAUCACUACGAAAUCUUGAGAUCGGCCGUUCGACUCGCCCCCGGGAGCUUUUUUCCUCGAGCAA [G67C A89C] stands at most 0.026.
With CUCUCGGUAGCGAAAUUGGUUUAAGGCGCAAGGCUUUAAUUUAUCACUACGAAAUCUUGAGAUCGGGCGUUCGACUCGCCCCCGGGAGGUUUUUUCCUCGAGCAA [C12G G15A A33G A89G] the figure was at most 0.026; with AUCUCGGUAGGCAAGUUGGUUUAAGGCGCAAGACUUUAAUUUAUCACUACGAAAUCUUGAGAUCGGGUGCUCGACUCGCCCCCGGGAGAUUUUUUCCUCGAGCAA [C1A C11G C68U U70C], at most 0.026; with CUCUCGGUAUCCAAGUUGGUUUAAGGCGCAAGAGUUUAAUUUAUCACUACGAAAUCUUGAGAACGGGCGUUCGACUCGCCUCCGGGAGAUUUUUUCCUCGAGCAA [G10U C34G U63A C81U], at most 0.026.
In the case of CUCUCGGUAGCCAAGUUGGUUUAUGGCGCAGGACUUUAAUUUAUCACUACGAAAUCUUGAGAUCGCGCGUUCGACUCGCCCCCGGGAGAUUUUUUCCUCGAGCAA [A24U A31G G66C], the nonsense suppression was at most 0.026.
In the case of CUCUCGGUAGCCAAGUUGGUUUAAGGCGCAAGACUUUAAUUUAUCACUACGAAAUGUUGAGAGCGGGCGUUCGACUCGCCCCCGGGAGAUUUUUUCCUCGAGCAA [C56G U63G], the nonsense suppression is at most 0.026.
In the case of CGCUCGGUAGCCUAGUUGGUUUAAGGCGCAAGACUUUAAUUUAUCACUACGAAAUCUUGAGAUCGGGCGUUCGACUCGCCCCCGGGAGAUUUUUUCCUCGAGCAA [U2G A13U], the nonsense suppression was 0.0638.
Under GUCUCGGUAGCCAAGUUGGUUUAAGGCGCAAGACUUUAAUUUAUCACUACGAAAUCUCGAGUUCGGGCGUUCGACUCUCCCCCGGGAUAUUUUUUCCUCGAGCAA [C1G U58C A62U G78U G88U] stands at most 0.026; under CUCUCGGUAGCCAAGUUGGUUUUAGGCACAAGACUUUAAUUUAUCACUACGAAAUCUUGAGAUCGGGCGUUCGACUCGCCCCCGGGAGAUUUUUUCCUCGAGCAA [A23U G28A], at most 0.026.
CUCUCGGUAGCCAAGUUGGUUUAAGGCGCAAGACUUUAAUUUAUCACUACGAAAUCUUGAGAUCGGGCGUUCGGCUCGCCUCCGGGAGAUUUUUUCCUCGAGCAA [A74G C81U]: the nonsense suppression is at most 0.026.
Take CUCUCGGUAGCCAAGUUUGUUUUAGGCGCAAGACUUUAAUUUAUCACUACGAAAUAUUGUGAUCGGGCGUUCGACUCGCCCCCGGGAGAUUUUUUCCUCGAGCAA [G18U A23U C56A A60U]: the nonsense suppression was at most 0.026.
For CACUCGGUAGCCAAGUAGGUUUAAGGCGCAAGACUUUAAUUUAUCACUACGAAAUCUUGAGAUCGGGCGUUCGACUCGCCCCCGGGAGAUUUUUUCCUCGAGCAA [U2A U17A], the nonsense suppression is at most 0.026.
Under CUCUCGGUAGCCAAGUUGGUUUAAGGCGCAAGACUUUAAUUUAUCACUACGAAAUCUUGAGAUGGGGCGUUUGACUCGCCCCCGGGAGAUUUUUUCCUCGAGCAA [C64G C72U] stands at most 0.026; under CUCUCGGUAGCCAAAUUGGUUUAAGGCGCAAGACUUUAAUUUAUCACUACGAAAUCUGGAGCUCGGGCGAUCGACUCGCCCCCGGGAGAUUUUUUCCUCGAGCAA [G15A U58G A62C U70A], at most 0.026.
